Measured values: PubChem BioAssay AID686978 (National Center for Advancing Translational Sciences (NCATS), 2013)
The whole screen tested about 420,000 compounds, of which about 64,000 (15%) were called active. Inconclusive results, whose numbers are uncertain, are shown with a selection of clear calls. The call rests on the fitted dose curve; in most records, active means well fitted inhibition curve with a large enough effect; inconclusive means small, poorly fitted or top-dose-only effect; inactive means flat fitted curve, though single readings scatter. No potency is given beside an inconclusive call; the fits are too rough.

assay: qHTS for Inhibitors of human tyrosyl-DNA phosphodiesterase 1 (TDP1): qHTS in cells in absence of CPT; conditions: DT40 Tdp1-/- hTDP1 cells, no CPT, ATP luminescence, 48 h; activity change, negative = growth inhibition: at 46.2 µM (top of the series) unless noted; further: nearly all actives have a fitted effect of over 55% in size
Method in brief: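 No-CPT arm: Tdp1-/-;hTDP1 DT40 cells (400/well) plus compounds, incubated ≥48 hr at 37 °C. Readout CellTiter-Glo luminescence.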
On the % scale 0 is the no-effect control and ±100 the full control effect; potency means the concentration at half of the fitted maximal effect; tags describe the fitted curve by direction and shape.

| Structure (SMILES) | Potency | activity change, negative = growth inhibition |
| --- | --- | --- |
| Cc1ccccc1N1CCN(S(=O)(=O)c2nnc(NC(=O)c3ccc(C(C)C)cc3)s2)CC1 | inconclusive [inhibitor, single point] |  |
| O=C(CCSCc1ccccc1Cl)NCc1cccs1 |  | inconclusive: -4.12% [inhibitor] |
| Clc1ccc(OCc2nc(-c3ccccn3)no2)c(Br)c1 | inconclusive [inhibitor, single point] |  |
| CCN=C1SC(C(=O)Nc2ccc(OC)cc2)CC(=O)N1CC (centres undefined) | inactive |  |
| COc1cc(NC(=O)c2cc(C3CC3)nc3c2c(C)nn3-c2ccccc2)cc(OC)c1 | inconclusive [inhibitor, single point] |  |
| O=C(CN1CCC(NC(=O)c2ccccc2F)CC1)NCc1ccc(F)cc1 | inconclusive [inhibitor, single point] |  |
| CCn1ncc(C2=NOC(C(=O)Nc3c(C)n(C)n(-c4ccccc4)c3=O)C2)c1C (centres undefined) | inactive |  |
| O=C(COC(=O)Cn1cnc2ccccc2c1=O)NCc1ccccc1 | inconclusive [inhibitor, single point] |  |
| CC1CCc2c(sc(Nc3nc4c(F)cccc4s3)c2C(N)=O)C1 (centres undefined) | active: 16.4 µM |  |
| C[C@]12c3[nH]c4ccccc4c3CCN1C(=O)C(CC(=O)NCc1ccco1)C[C@@H]2C(=O)N1CCCCC1 (some centres undefined) | inconclusive [inhibitor, single point] |  |
| CCN(CC)CCN1C(=O)C(=O)/C(=C(/O)c2ccccc2)C1c1ccccc1F (centres undefined) | inactive |  |
| COC(=O)C1CCN(C(=O)C2CCN(C(=O)[C@H](C)NS(=O)(=O)c3ccc(C)cc3)CC2)CC1 | inconclusive [inhibitor, full curve, poor fit] |  |
| COC(=O)[C@]12CCCCC=C1N(Cc1cccc3ccccc13)C(=O)[C@H](CC(=O)N1CCCC1)C2 | active: 20.6 µM |  |
| CN(Cc1ccccc1)c1nnc(N)s1 | inactive |  |
| O=C(c1cc(C(F)(F)F)cc(C(F)(F)F)c1)N1CCC2(CC1)CCN(c1ccncc1)CC2 | active: 18.4 µM |  |
| Cc1ccc(NC(=O)COC(=O)CCc2c(C)nc3nc(N)nn3c2C)cc1C | inactive |  |
| CCCN=C(N)/C(C(=O)OCC)=C(\O)c1ccc(OC)cc1 | inactive |  |
| COc1ccc(NC(=O)c2scc(S(=O)(=O)C(C)C)c2N)cc1 | inconclusive [inhibitor, single point] |  |
| c1ccc(COc2ccc(OCCCn3cncn3)cc2)cc1 | inconclusive [inhibitor, single point] |  |
| Cc1ccc(-c2ccc(/C=N\NC(=O)C3C(=O)NCC3c3ccccc3)o2)cc1Cl (centres undefined) | inconclusive [inhibitor, single point] |  |
| CCC(C)(C)C1CCC2(CC1)NC(=O)N(CC(=O)N1CCN(C(=O)c3ccco3)CC1)C2=O (centres undefined) | inactive |  |
| CCCCOc1ccc(N(CC(=O)NC2CCCCC2)C(=O)c2snc(C(N)=O)c2N)cc1 | active: 16.4 µM |  |
| CN(C)c1ccc(C=NNC(=O)c2cccc3ccccc23)c(Cl)c1 | active: 4.11 µM |  |

| Structure (SMILES) | Potency | activity change, negative = growth inhibition |
| --- | --- | --- |
| CCOc1ccc(C2NC(=O)c3ccccc3O2)cc1OCC (centres undefined) | inconclusive [inhibitor, partial curve] |  |
| COC(=O)c1cccc(CSc2nc3ccccc3[nH]2)c1 | active: 16.4 µM |  |
| Cc1nn(Cc2ccc(C(=O)N3CCOCC3)o2)c(C)c1Br | inconclusive [inhibitor, partial curve] |  |
| C[C@@H]1CN([C@H](C)CO)C(=O)CCCn2nncc2CO[C@H]1CN(C)C(=O)C1CCCCC1 | inconclusive [inhibitor, full curve] |  |
| COc1ccc(/C=C/C(=O)OCC(=O)N2CCCCCC2)c(OC)c1 | inconclusive [inhibitor, partial curve] |  |
| CC(C)CCNC(=O)c1cc2c(s1)-c1ccccc1S(=O)(=O)C2 | inconclusive [inhibitor, single point] |  |
| CCOC(=O)C1=C(COC(=O)Cc2ccc(Br)cc2)NC(=O)NC1C (centres undefined) |  | inconclusive: -33.1% [inhibitor] |
| CCCCn1nnnc1C(c1cc2ccccc2o1)N1CCCN(C(=O)OC(C)(C)C)CC1 (centres undefined) | inconclusive [inhibitor, single point] |  |
| COc1ccccc1-n1cc2c([N+](=O)[O-])cc([N+](=O)[O-])cc2n1 | inconclusive [inhibitor, single point] |  |
| Cc1ccc(NC2CCCN(C(=O)CSc3ccncc3)C2)cc1C (centres undefined) | inconclusive [inhibitor, single point] |  |
| CCN(CC)C(=O)C(C)N1c2cccc3cccc(c23)S1(=O)=O (centres undefined) | active: 16.4 µM |  |
| Cn1cc(C(=O)c2ccc(Cl)cc2Cl)cc1C(=O)N/N=C(\N)COc1cccc(C(F)(F)F)c1 | inconclusive [inhibitor, single point] |  |
| CC1CN(S(=O)(=O)c2cccc(C(=O)OCCOc3ccccc3)c2)CC(C)O1 (centres undefined) | inconclusive [inhibitor, single point] |  |
| CN(C)c1cccc(NC(=O)C2Cc3c(-c4ccc(Cl)cc4)ccnc3O2)c1 (centres undefined) | inconclusive [inhibitor, single point] |  |
| CCCCN(C(=O)c1cc(OC)c(OC)c(OC)c1)C1=CC2CCC(C1)N2C (centres undefined) | inconclusive [inhibitor, single point] |  |
| COc1ccc(C(C(=O)NC2CCCCC2)N(Cc2ccco2)C(=O)c2snc(C(N)=O)c2N)cc1 (centres undefined) | inconclusive [inhibitor, partial curve] |  |
| Cc1cc(C)c(S(=O)(=O)N2CCN=C2c2ccccc2)c(C)c1 | active: 16.4 µM |  |
| O=C(NNC(=O)c1ccc(NC(=O)c2ccccc2)cc1)c1ccccc1 | inconclusive [inhibitor, single point] |  |
| Cc1cc(C(C)(C)C)cc(C)c1N | inactive |  |
| Cc1ccc(Cl)cc1NC(=O)C1CCN(c2nnc(C)c3c(C)n(-c4ccccc4)nc23)CC1 | active: 10.3 µM |  |
| CNCCCCOc1ccccc1-c1ccccc1 | inconclusive [inhibitor, single point] |  |
| S=C(NCc1ccc(Cl)cc1)NC12CC3CC(CC(C3)C1)C2 | inconclusive [inhibitor, single point] |  |
| CN(C)S(=O)(=O)c1ccc(C(=O)N2CCN(S(=O)(=O)c3ccc4c(c3)OCCO4)CC2)cc1 | inactive |  |

| Structure (SMILES) | Potency | activity change, negative = growth inhibition |
| --- | --- | --- |
| COc1ccc(CN2CCC3CC2c2cc(-c4cccc(C)c4)ccc23)cc1 (centres undefined) | active: 14.6 µM |  |
| CCCCCCNc1cc(C)oc(=O)c1C(C)=O | inconclusive [inhibitor, single point] |  |
| COc1ccc(-n2c(=O)c(-c3cccs3)nc3cnc(N4CCN(C)CC4)nc32)cc1 | inactive |  |
| O=C(NC1CCCC1)C(c1ccsc1)N(CCc1ccccc1)C(=O)Cc1cccs1 (centres undefined) | inconclusive [inhibitor, partial curve] |  |
| CCc1ccc(CNC(=O)c2cnc3sc(N4CCCC4)nn3c2=O)cc1 | inactive |  |
| CCC(=O)NCCc1nc2ccccc2n1Cc1ccccc1 | inconclusive [inhibitor, single point] |  |
| CCc1c(C2(O)CCCCC2)[nH]c2ccc(C(F)(F)F)cc12 | inconclusive [inhibitor, single point] |  |
| Cc1cccc(/C=N\Nc2nnc(-c3ccccc3)c(=O)[nH]2)c1 |  | inconclusive: -32.1% [inhibitor] |
| CCc1nc2ccc(C(=O)NCCCN3CCCC3=O)cn2c1N(C)Cc1ccc(OC)cc1 | inconclusive [inhibitor, single point] |  |
| CCOc1ccc(NC(=O)C2CCC(CNc3c(N4CCCCC4)c(=O)c3=O)CC2)cc1 (centres undefined) | inconclusive [inhibitor, partial curve] |  |
| COc1cccc(CN(C)C(=O)c2ccc(S(=O)(=O)N3CCCC3)cc2)c1OC | inconclusive [inhibitor, single point] |  |
| Cc1ccccc1CNC(=O)c1ccc2c(c1)c(C)c(C)n2C | inconclusive [inhibitor, single point] |  |
| Cc1ccc(S(=O)(=O)Nc2cc3c4c(c2)CCN4C(=O)CC3)cc1 | inconclusive [inhibitor, single point] |  |
| O=C(Nc1ccc(-c2csc(Nc3ccccc3)n2)cc1)c1cccc(C(F)(F)F)c1 | active: 4.11 µM |  |
| CN(C)C(=O)CSc1nnc(-c2cc(-c3cccs3)nc3ccccc23)o1 | active: 18.4 µM |  |
| CN(C)c1ccc(CNC(=O)c2ccc(Cn3c(SCc4ccccc4)nc4cccnc43)cc2)cc1 | inconclusive [inhibitor, single point] |  |
| O=C(NCc1ccncc1)c1ccc2nc(Cc3ccccc3F)oc2c1 | inconclusive [inhibitor, single point] |  |
| Cc1ccccc1N1CCN(Cc2nc(Cc3ccccc3F)no2)CC1 | inconclusive [inhibitor, single point] |  |
| COc1ccc(C2CC(c3cccc(Br)c3)=NN2c2ccc(S(N)(=O)=O)cc2)cc1 (centres undefined) | inconclusive [inhibitor, single point] |  |
| FC(F)Oc1ccccc1C1CC(c2ccc(Br)s2)Nc2ncnn21 (centres undefined) | active: 16.4 µM |  |
| CCOc1ccccc1N=C1SCC(C)N1C(=O)C1CCN(c2ncnc3sc(C)c(C)c23)CC1 (centres undefined) | active: 14.6 µM |  |
| CCOc1ccc(-c2nc(-c3ccccc3)no2)cc1OCC | inconclusive [inhibitor, single point] |  |
| CN(C(=O)COC(=O)C(C)(C)Oc1ccc(Cl)cc1)c1c(N)n(Cc2ccccc2)c(=O)[nH]c1=O | inconclusive [inhibitor, single point] |  |
